Patent publication US20160017021A1 (PROTALIX, published 2016)

Biological target: T1, Tumor necrosis factor-alpha (TNFα) (human, UniProt P01375 part only)
T1 construct: The same entry stands for both sources; also called TNF-alpha; cachexin
Test: sandwich ELISA: TNFα captured on anti-TNFα plate, serial dilutions of BY2 lysate/supernatant, detection with goat anti human IgG Fc HRP

T1 sequence (P01375 77-233 limits assumed): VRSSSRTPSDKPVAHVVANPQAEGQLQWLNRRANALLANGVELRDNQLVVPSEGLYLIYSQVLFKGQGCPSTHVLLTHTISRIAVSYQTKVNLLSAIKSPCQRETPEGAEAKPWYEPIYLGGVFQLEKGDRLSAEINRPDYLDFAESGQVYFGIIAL

B1: plant recombinant human (prh) TNFR2:Fc (Fc fusion)
chain: LPAQVAFTPYAPEPGSTCRLREYYDQTAQMCCSKCSPGQHAKVFCTKTSDTVCDSCEDSTYTQLWNWVPECLSCGSRCSSDQVETQACTREQNRICTCRPGWYCALSKQEGCRLCAPLRKCRPGFGVARPGTETSDVVCKPCAPGTFSNTTSSTDICRPHQICNVVAIPGNASMDAVCTSTSPTRSMAPGAVHLPQPVSTRSQHTQPTPEPSTAPSTSFLLPMGPSPPAEGSTGD[letters of human IgG1 Fc and a few adjoining residues omitted]
notes: Expressed in N. tabacum BY2 cells; also called PRX-106; PRX106
Does B1 bind?
Result: binds
